Measurements from ChEMBL document CHEMBL4888484, “Replenishing the malaria drug discovery pipeline: Screening and hit evaluation of the MMV Hit Generation Library 1 (HGL1) against asexual blood stage Plasmodium falciparum ,using a nano luciferase reporter read-out” (2022).
In all, about 150,000 compounds went through this assay and about 540 (0.36%) showed an effect of 50% or more. Some of the results follow.

These compounds were tested on Plasmodium falciparum (assay: Primary screen in NF54 nanoGlo assay, in single point, at 2uM, 72h; a lower Z score goes with more inhibition). Details: timepoint 72 hour.
Format: functional, Erythrocyte

Structure (SMILES)	% Inhibition [%]	Z score
Cc1ccc(NCc2c(F)cncc2F)c(OC[C@H]2CCCO2)c1	-6	0.95
COc1c(C)cc(C(=O)[C@H]2CCCN(C(=O)Cn3ccc(C)n3)C2)cc1C	-1	0.16
CCOCC(=O)N1CCC[C@@]2(CCC(=O)N(CCc3c[nH]cn3)C2)C1	-5	0.93
Cc1cc(C)cc(NC(=O)[C@@H]2CCCN2S(=O)(=O)c2cc3c(cc2C)NC(=O)CO3)c1	1	-0.1
O=C(Cn1ncn2nc(-c3ccccc3)cc2c1=O)N1CCCCC1	-20	1.75
CCc1nc(C[C@H]2CN(C(=O)Nc3ccc4c(c3)CCC4)CCO2)no1	-3	0.41
Cc1cc(C(=O)NC[C@H](O)c2ccnn2C)ccc1N1CCOCC1	-12	1.55
Cc1nn(C(C)(C)C)cc1C(=O)NCCn1cnnc1C(C)C	-2	0.26
CC1CC(=O)CCC1c1nc(C2COCCN2C(=O)OC(C)(C)C)no1 (stereo not given)	-5	0.62
O=S(=O)(c1ccc(F)cc1)N1CCc2nc(N3CCCC3)nc(Oc3ccc(F)c(F)c3)c2C1	-8	0.88
C[C@@H](c1nc2cc(Cl)ccc2[nH]1)N(C)S(=O)(=O)N1CCC1	6	-0.72
Nc1ncnc(N[C@H](c2nccs2)C2CC2)c1Cl	5	-0.68
CCc1nn2c(C)c(C(=O)N3CCOCC3)nnc2c1-c1ccccc1	-13	1.41
O=C1CCCCN1CC(=O)N1CCO[C@H](c2ccccc2)C1	-13	2.53
C[C@H]1Cc2cc(C(=O)NC(C)(C)c3nnc(N)s3)ccc2O1	-5	0.69
N#Cc1c(O)nc(N)c2c1C(c1ccc(Cl)cc1)=NC2=O	-6	0.93
O=C(Nc1ccc(S(=O)(=O)Nc2nccs2)cc1)c1cccc2ccccc12	-2	0.43
O=C(c1cccnc1)N(CCN1CCCC1)C1CCOCC1	-1	0.12
Cc1cnn(Cc2noc3c2CCCC3)c1	5	-0.64
Cc1ccc(Cl)cc1NC(=O)Cn1nc2c(Oc3cccc(C)c3C)nccn2c1=O	-15	2.33
Cc1ccc(F)cc1NC(=O)Cn1nc2c(Oc3ccccc3C)nccn2c1=O	-12	1.13
COc1ccc(NC(=O)N2CCC[C@H]2c2cccs2)cn1	3	-0.48

Structure (SMILES)	% Inhibition [%]	Z score
CCc1c(C(=O)N2CC(CF)C2)ccn1C	-12	1.22
O=C(NCc1nc(C2CCCCC2)cs1)c1ccco1	-3	0.5
CC1CCCCC1N1CCN(Cc2ccncc2)CC1 (stereo not given)	-13	1.69
CCCc1cc(C(=O)NCCc2cc(O)nc(C)n2)ccn1	8	-0.75
NS(=O)(=O)c1ccc(N[C@H]2CCN(c3ccc(F)c(Cl)c3)C2)nc1	-8	1.04
Cn1nccc1CNC(CO)CC(O)C(C)(C)C (stereo not given)	-3	0.38
COCCN(C1CCCC1)S(=O)(=O)c1cc(C)sc1C	-10	0.85
CN(Cc1nc(-c2ccncc2)no1)C[C@H]1CCOC1	-3	0.6
O=C(O)[C@H]1CCCCN1Cc1cc2ccccc2o1	-11	2.27
COC(=O)c1ccc(C(=O)N2CC[C@H](c3ncon3)C2)cc1	0	-0.03
CCCN(Cc1nc(-c2ccccc2F)no1)C[C@H]1CCCCO1	2	-0.32
O=C(Nc1nc2cc3c(cc2s1)OCCO3)c1ccc(S(=O)(=O)N2CCCC2)cc1	-12	2.3
COc1ccc(NS(=O)(=O)c2ccc(NC(=O)c3ccccc3)cc2)nn1	-14	1.88
O=C(Nc1nccs1)c1ccc(O[C@H]2CCOC2)nc1	-14	2.58
COCc1cc(CN(C)c2cc(N(C)C)ncn2)n[nH]1	-5	1.06
CN(C)[C@@H](CNC(=O)C(=O)Nc1cccc(C(F)(F)F)c1)c1ccc2c(c1)CCO2	-5	0.75
CN1CCC(N2CCN(Cc3nc4c(s3)CCCC4)C[C@@H]2CCO)CC1	-12	1.56
CN1CCO[C@@H](CN(CC2CC2)C(=O)Cc2ccccc2O)C1	-11	1.49
CCCc1ncncc1-c1nc(C(C)C)nn1CCO	-12	2.15
Cc1ccc(C(=O)N(CC(F)(F)F)c2nc(C)cs2)cn1	-12	2.35
COC(=O)[C@@H](NC(=O)c1[nH]nc(C2CC2)c1Cl)C(C)(C)C	28	-3.14
COc1ccc(NC(=O)c2cc(C)n3nc(-c4ccccn4)cc3n2)cc1Cl	1	-0.08

Structure (SMILES)	% Inhibition [%]	Z score
O=C(NCc1ccc(S(=O)(=O)N2CCCCCC2)s1)c1ccc2c(c1)OCO2	-13	1.29
COCCn1cnnc1CCNC(=O)[C@H](O)c1ccccc1Cl	-4	0.82
Cc1ccc([C@H](C)NCc2ncoc2C(C)C)o1	0	0.02
N#Cc1nc(-c2ccc(OCc3ccccc3Cl)cc2)oc1N1CCCCCC1	-9	1.23
CNC(=O)CCN(C)[C@@H](C)c1nc(C(C)C)no1	-14	1.81
CC(C)CCC[C@H](C)NC(=O)c1ccc(O)c(Cl)c1	-15	1.35
O[C@@]1(CNCc2ccccc2Cl)CCCN2CCCC[C@@H]21	-13	1.93
C=C(C)COc1cccc(NC(=O)C(=O)NCc2nc(C)cs2)c1	-10	1.27
Cc1c(C2c3ccccc3Oc3ccccc32)c(=O)n(-c2ccccc2)n1C	19	-3.81
Cc1ccccc1NC(=O)Cc1c(C)nc2nc(-c3cccs3)nn2c1C	-12	1.35
Cc1ccc(CN(C)CC(=O)Nc2ccnn2C2CCCC2)o1	-3	0.5
CN(C)S(=O)(=O)c1ccc(C(=O)NC[C@H]2CCCN2c2ncccn2)cc1	-25	2.89
Cc1cccc(NC(=O)N2CCC(n3cnc4ccccc4c3=O)CC2)c1	-11	1.23
CCNC(=O)N1CCN(c2nc(C)nc3[nH]ccc23)CC1	-5	0.76
Cc1ccc(-n2c(C)c(CNCc3ccccc3Cl)c(C(=O)O)c2C)cc1	-7	0.93
CC(C)n1cncc1CN(Cc1ccc(F)cc1)C1CCOCC1	15	-1.55
CC1CCCN(C(=O)c2ncnc(O)c2Br)C1C (stereo not given)	-5	0.83
CC1CCCCN1C(C)CNS(=O)(=O)N1CCOCC1 (stereo not given)	0	0.05
Cc1nc(CC(C)C)cc(C(=O)NCCCN2C[C@@H](C)O[C@@H](C)C2)n1	6	-1.18
Fc1cc(Br)ccc1CNc1nc(C2CC2)ns1	-4	0.41
CC(C)C[C@H]1NC(=O)c2cc(F)ccc2OCCn2cc(nn2)CCN(C(=O)c2ccc3c(c2)OCCO3)CCNC1=O	-8	1.03
COc1ncccc1N(C)C(=O)c1cn(C(C)(C)C)nn1	-14	3.04

Structure (SMILES)	% Inhibition [%]	Z score
CC(C)(C(=O)NC[C@H](Cc1ccccc1Cl)C(N)=O)c1c[nH]cn1	-3	0.41
CCN1CCN(C(C)(C)CNc2nc(C)c(C)cc2C(N)=O)CC1	1	-0.23
CC[C@](O)(CCCO)CNC(=O)c1ccc(F)c(O)c1	-20	1.9
CC(C)C(C)NC(=O)CCC1CCCO1 (stereo not given)	-12	1.29
C[C@H]1CCOCCN1C(=O)NCCCCN(C)c1ccccc1	-9	1.22
COc1cc(S(=O)(=O)N2CCOCC2)cc(C(=O)Nc2ccc(Oc3ccccc3)cc2)c1OC	0	-0.06
CN=C(NCc1cc2ccccc2o1)N[C@@H](C)c1ccccc1	1	-0.15
COc1ccc(NC(=O)C2CCN(c3cc(C(F)(F)F)ncn3)CC2)cc1	-10	1.19
CCN1CCO[C@H](CNC(=O)N[C@@H]2c3ccccc3C[C@@H]2F)[C@H]1c1ccccc1	2	-0.38
COc1ccc(-c2csc(N(c3ccc(OC)cc3)[C@@H](C)C(=O)N3CCCC3)n2)cc1	-10	1.5
O=C(NCCCN1CCOCC1)C1CCC1	-6	1.03
CC(Oc1ccc2c(c1)C(c1ccccc1)N(Cc1ccccc1F)CC2)C(=O)N(C)Cc1ccco1 (stereo not given)	-12	1.14
O=C(NCc1ccccc1)c1c(O)c2cnn(Cc3ccccc3)c2[nH]c1=O	0	0.04
CCOC(=O)c1n[nH]cc1CNCc1cccnc1N(C)C	4	-0.61
CCC(=O)N1CCC(OC2CCN(C(=O)COC)CC2)CC1	-14	1.77
C[C@@H]1Oc2ccc(NC(=O)COc3ccccc3Cl)cc2NC1=O	-10	1.69
O=C(c1ccc(-c2ccc(C(=O)N3CCC(F)CC3)cc2)c(F)c1)C1CC1	-10	1.63
CC(C)N1C[C@@]2(CCCN(c3ccc(-c4ccccc4)nn3)C2)CCC1=O	-5	0.66
CN(C(=O)N[C@H]1CCC(C)(C)c2ccccc21)C1CC[S+]([O-])CC1 (stereo not given in full)	7	-0.95
